Measured values taken from PubChem BioAssay AID488969 (Vanderbilt High Throughput Screening Facility, 2010).
The full ranking holds about 110,000 compounds; the median of “z-score” is about -0.1, and the highest 2% start at about 2. Some of the results follow.

The compounds below were run against Metabotropic glutamate receptor 8 (Rattus norvegicus) (UniProt P70579) (assay: rat mGluR8 modulators via GIRK flux, primary screen, cell-based, thallium flux, HTS (AID 488969)). Conditions: HEK293 rat mGluR8, GIRK (G protein-gated inwardly rectifying potassium channel) thallium flux, FluoZin2; at 10 µM; stronger effect = higher value; submaximal glutamate (EC20) added with thallium.
Sequence of UniProt P70579 (P70579 whole entry, looked up): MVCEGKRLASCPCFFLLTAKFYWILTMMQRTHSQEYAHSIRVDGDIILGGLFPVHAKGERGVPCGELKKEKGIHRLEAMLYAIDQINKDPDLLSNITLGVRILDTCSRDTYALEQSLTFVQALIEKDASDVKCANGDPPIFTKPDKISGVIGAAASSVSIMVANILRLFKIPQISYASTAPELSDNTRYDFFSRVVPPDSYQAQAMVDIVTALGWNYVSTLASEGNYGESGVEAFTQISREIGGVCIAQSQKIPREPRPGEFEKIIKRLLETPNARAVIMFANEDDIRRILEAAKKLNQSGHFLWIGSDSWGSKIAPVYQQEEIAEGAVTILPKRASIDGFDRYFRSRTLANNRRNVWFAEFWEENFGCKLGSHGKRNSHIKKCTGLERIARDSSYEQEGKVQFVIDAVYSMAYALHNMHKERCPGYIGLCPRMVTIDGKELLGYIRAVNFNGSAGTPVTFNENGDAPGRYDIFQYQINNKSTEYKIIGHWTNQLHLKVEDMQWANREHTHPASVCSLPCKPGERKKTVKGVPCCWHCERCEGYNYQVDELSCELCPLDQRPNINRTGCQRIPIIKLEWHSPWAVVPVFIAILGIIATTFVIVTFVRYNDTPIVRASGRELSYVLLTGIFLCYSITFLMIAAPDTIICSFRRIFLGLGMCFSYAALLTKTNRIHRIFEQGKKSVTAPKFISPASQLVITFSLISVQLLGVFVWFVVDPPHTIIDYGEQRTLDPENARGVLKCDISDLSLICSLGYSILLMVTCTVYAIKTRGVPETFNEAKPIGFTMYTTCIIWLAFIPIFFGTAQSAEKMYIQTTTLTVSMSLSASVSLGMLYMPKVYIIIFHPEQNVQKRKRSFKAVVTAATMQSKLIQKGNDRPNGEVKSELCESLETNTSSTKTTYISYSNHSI

Q: For `FC(F)(F)c1cc(-c2ccco2)nc(NCc2cccs2)n1`, which z-score is on record?
A: Its z-score is 0.0189.

Q: How did the z-score turn out when `COc1cccc(CSc2nc3ccccc3cc2C=O)c1` was run?
A: The z-score was -1.37.

Q: How did the z-score turn out when `Clc1ccc2nc(-c3ccncc3)cc(-c3ccccc3)c2c1` was run?
A: Its z-score is 0.109.

Q: Which z-score does the source give for `CCOCCCNCc1ccc(OC)cc1` here?
A: The z-score was -0.409.

Q: How did the z-score turn out when `COCCn1c(=S)[nH]c2cc(C(=O)NCCc3ccc(OC)c(OC)c3)ccc2c1=O` was run?
A: The z-score was -0.0271.

Q: With `O=C(Cc1ccccc1)Nc1cc(Cl)ccc1Sc1ccccc1` as the compound, how does the z-score read?
A: Its z-score is 0.037.

Q: For `CCOC(=O)c1sc(C)c2c1NC(c1ccc(Cl)cc1)NC2=O` (configuration not stated), which z-score is on record?
A: The z-score was 0.0644.

Q: With `CC1Cc2ccccc2N1c1ncnc2c1nnn2Cc1ccccc1Cl` (configuration not stated) as the compound, how does the z-score read?
A: The z-score was -0.251.

Q: With `Cc1cc(C)c2[nH]c(=O)c(C(c3nnnn3C(C)(C)C)N(Cc3ccco3)CC3CCCO3)cc2c1` (configuration not stated) as the compound, how does the z-score read?
A: The z-score was -0.324.

Q: For `CCOC(=O)c1ccc(NC(=S)NC2CCCC2)cc1`, which z-score is on record?
A: Its z-score is 2.61.

Q: `Cc1ccc(NC(=O)c2ccccc2)s1` was tested. Which z-score did it give?
A: Its z-score is -0.277.

Q: For `CCOC(=O)N1CCN(S(=O)(=O)c2cc(OCC)ccc2OCC)CC1`, which z-score is on record?
A: Its z-score is -0.0833.

Q: For `CCCn1c(=O)n(C)c(=O)c2c(SCC(=O)NC34CC5CC(CC(C5)C3)C4)nc(CC(C)C)nc21`, which z-score is on record?
A: The z-score was -0.263.

Q: `COc1cc(OC)cc(C(=O)Nc2ccc([N+](=O)[O-])cn2)c1` was tested. Which z-score did it give?
A: Its z-score is -0.173.

Q: Which z-score does the source give for `CCCCN(Cc1cc2cc(OC)ccc2[nH]c1=O)C(=O)COc1ccccc1` here?
A: Its z-score is -0.254.

Q: For `CCOC(=O)N1CCN(C(=O)C2CCCN(Cc3nc(-c4ccc(Cl)cc4)oc3C)C2)CC1` (configuration not stated), which z-score is on record?
A: Its z-score is -0.063.

Q: `Cc1sc2ncnc(Nc3ccc(N4CCOCC4)cc3)c2c1-c1ccccc1` was tested. Which z-score did it give?
A: The z-score was -0.6.

Q: With `CC(C)(C)C(=O)NC(=S)Nc1ccccc1C(N)=O` as the compound, how does the z-score read?
A: The z-score was -0.144.

Q: Which z-score does the source give for `COc1cc2c(cc1NC(=O)c1cccc(Br)c1)CCCC2` here?
A: Its z-score is 0.201.

Q: With `Cc1ccc(NCc2nnc(SCCN3CCCCC3)n2CC2CCCO2)cc1Cl` (configuration not stated) as the compound, how does the z-score read?
A: Its z-score is -0.312.

Q: Which z-score does the source give for `CCCOCCOC(=O)C1=C(C)NC(=O)NC1c1cc(Cl)c(O)c(OC)c1` (configuration not stated) here?
A: Its z-score is 0.159.

Q: `CSCCC1NC(=O)N(CC(=O)Nc2cccc3ccccc23)C1=O` (configuration not stated) was tested. Which z-score did it give?
A: The z-score was 0.0967.

Q: Which z-score does the source give for `Cc1cccc(OCCCC(=O)Nc2nccs2)c1` here?
A: Its z-score is -0.848.

Q: How did the z-score turn out when `CNC(=S)NCc1ccc(Cl)cc1` was run?
A: The z-score was 0.0853.

Q: With `CCc1cccc(NC(=O)C2CCCN(S(=O)(=O)c3c(C)[nH]c(=O)[nH]c3=O)C2)c1` (configuration not stated) as the compound, how does the z-score read?
A: Its z-score is -0.32.

Q: Which z-score does the source give for `CC(=O)/C(=N\Nc1ccccc1)Sc1cccc2cccnc12` here?
A: The z-score was -0.115.

Q: `O=C(COC(=O)c1cc2ccccc2oc1=O)c1cccc([N+](=O)[O-])c1` was tested. Which z-score did it give?
A: The z-score was -0.0516.

Q: How did the z-score turn out when `C/C=C(\CS(=O)(=O)c1ccccc1)S(=O)(=O)c1ccccc1` was run?
A: Its z-score is -0.484.

Q: Which z-score does the source give for `CC(O)Cc1nsc(NC(=O)c2ccc(Br)o2)n1` (configuration not stated) here?
A: Its z-score is 0.0681.

Q: For `O=C(Cc1ccccc1)NNC(=O)c1cnccn1`, which z-score is on record?
A: The z-score was -0.0608.

Q: With `Fc1cccc2sc(Nc3nc4cc5c(cc4s3)OCCO5)nc12` as the compound, how does the z-score read?
A: Its z-score is 2.25.

Q: `COc1ccc(CC(=O)NC2=NCCS2)cc1` was tested. Which z-score did it give?
A: Its z-score is 0.0759.

Q: `CC(C)OP(=O)(c1ccc(N(C)C)cc1)C(O)c1ccccc1` (configuration not stated) was tested. Which z-score did it give?
A: Its z-score is 0.033.

Q: Which z-score does the source give for `Cc1nnc(SCC(=O)NC(C)(C)C)n1C1CCCCC1` here?
A: The z-score was -0.279.

Q: Which z-score does the source give for `Cc1cc(C(=O)NP(=O)(N2CCOCC2)N2CCOCC2)c(C)n1-c1ccc(N(C)C)cc1` here?
A: The z-score was -0.344.

Q: For `CCOc1cc(NC(=S)NCc2ccco2)c(OCC)cc1NC(=O)CC`, which z-score is on record?
A: The z-score was -0.0982.

Q: For `CCCNS(=O)(=O)c1ccc(CCC(=O)N2CCN(c3ccc(F)cc3)CC2)cc1`, which z-score is on record?
A: The z-score was -0.715.

Q: Which z-score does the source give for `C=CCNc1nc(N2CCCC2)nc2ccccc12` here?
A: Its z-score is 2.37.

Q: How did the z-score turn out when `CCOc1cc2[nH]c(=S)n(CCCN(CC)CC)c(=O)c2cc1OCC` was run?
A: The z-score was -0.475.

Q: With `CCc1ccc(C(C)NC(=O)c2cc(C)oc2C)cc1` (configuration not stated) as the compound, how does the z-score read?
A: The z-score was -0.386.

Q: Which z-score does the source give for `O=S(=O)(Nc1ccc2c(c1)oc1ccccc12)N1CCCC1` here?
A: Its z-score is -0.363.

Q: `COc1ccc(N=C2SC(CC(=O)Nc3ccccc3OC)C(=O)N2Cc2ccco2)cc1` (configuration not stated) was tested. Which z-score did it give?
A: Its z-score is -0.0471.

Q: With `Cc1cc2oc(=O)cc(CSc3nnc(-c4cccs4)o3)c2cc1C(C)C` as the compound, how does the z-score read?
A: Its z-score is -0.189.

Q: Which z-score does the source give for `COc1ccccc1N1CCN(CCCCOc2ccc(F)cc2)CC1` here?
A: Its z-score is -0.111.

Q: How did the z-score turn out when `Cc1ccc(Nc2ccc(C(F)(F)F)cc2[N+](=O)[O-])cc1` was run?
A: The z-score was -0.145.

Q: For `CC(C)Cn1c(C(C)NC(=O)Cc2ccccc2)nc2ccccc21` (configuration not stated), which z-score is on record?
A: The z-score was -1.24.

Q: For `COC(=O)NC(=C(Cl)Cl)S(=O)(=O)c1ccccc1`, which z-score is on record?
A: The z-score was 0.181.

Q: With `Cc1cc(C)n(/N=C/c2ccccc2)c(=O)c1C#N` as the compound, how does the z-score read?
A: Its z-score is -0.422.

Q: Which z-score does the source give for `COc1cc2c(cc1OC)C(C(=O)N1CCN(c3ccccn3)CC1)C(c1cccs1)N(C)C2=O` (configuration not stated) here?
A: The z-score was -0.0378.

Q: How did the z-score turn out when `Cc1cccc(NC(=O)Nc2nnc(N3CCCCC3C)s2)c1C` (configuration not stated) was run?
A: The z-score was -0.194.

Q: How did the z-score turn out when `CC(C)(C)NC(=O)CN(Cc1cccs1)C(=O)CNS(=O)(=O)c1ccccc1` was run?
A: Its z-score is -0.153.

Q: Which z-score does the source give for `CN(C(=O)c1ccncc1)c1nnc(-c2cnccn2)s1` here?
A: Its z-score is -0.251.

Q: How did the z-score turn out when `CN(Cc1nc(-c2ccccn2)no1)S(=O)(=O)c1ccc(Cl)cc1` was run?
A: The z-score was 0.711.

Q: How did the z-score turn out when `COC(=O)C1C(=O)C2=C(CC1C)NC(=O)CC2c1cccc(C)c1` (configuration not stated) was run?
A: Its z-score is -0.174.

Q: Which z-score does the source give for `O=C(C(Sc1ccccc1)c1ccccc1)N1CCN(c2ccccc2F)CC1` (configuration not stated) here?
A: The z-score was -0.414.

Q: Which z-score does the source give for `Cc1ccc(C(=O)Nc2ccn(Cc3ccc(F)cc3)n2)o1` here?
A: Its z-score is -0.068.

Q: For `Cc1ccc2[nH]c(=O)c(C(c3nnnn3CC3CCCO3)N3CCCc4ccccc43)cc2c1` (configuration not stated), which z-score is on record?
A: Its z-score is 0.374.

Q: With `CC(NC(=O)c1sc2ccccc2c1Cl)C1CCCO1` (configuration not stated) as the compound, how does the z-score read?
A: Its z-score is -0.609.

Q: Which z-score does the source give for `CC(=O)c1c(C)nc2ccc(Br)cc2c1C(=O)O` here?
A: Its z-score is -0.291.

Q: With `COc1cccc(C(=O)Nc2cc3c(cc2Br)OCCCO3)c1` as the compound, how does the z-score read?
A: Its z-score is -0.424.

Q: How did the z-score turn out when `Cc1onc(-c2c(F)cccc2Cl)c1C(=O)Nc1cccc(Cn2cccn2)c1` was run?
A: Its z-score is -0.179.

Q: How did the z-score turn out when `COc1cc(NC(=O)Nc2ccc(C)cc2)cc([N+](=O)[O-])c1` was run?
A: Its z-score is -0.358.

Q: With `Cc1ccc2nc(NC(=O)c3ccc(Cl)s3)sc2c1` as the compound, how does the z-score read?
A: The z-score was -0.0778.

Q: `CN(C)c1ccc(/C=N/NC(=O)C(=O)/C=C2\NC3(CCCC3)Cc3ccccc32)cc1` was tested. Which z-score did it give?
A: The z-score was 0.862.

Q: How did the z-score turn out when `COc1cccc(C2CC(c3cccc(Br)c3)n3ncnc3N2)c1` (configuration not stated) was run?
A: Its z-score is -0.102.

Q: For `Cc1ccccc1N/N=C1\CCCNC1=O`, which z-score is on record?
A: Its z-score is 0.0319.

Q: With `COc1cccc(-c2nnc(SCc3nc4ccccc4s3)n2C)c1` as the compound, how does the z-score read?
A: The z-score was -0.34.

Q: `CC(Sc1n[nH]c(N)n1)c1nc2scc(-c3cccs3)c2c(=O)[nH]1` (configuration not stated) was tested. Which z-score did it give?
A: The z-score was -0.0891.

Q: How did the z-score turn out when `Cc1ccc[n+](CC(=O)c2ccc(-c3ccccc3)cc2)c1` was run?
A: Its z-score is 0.738.

Q: How did the z-score turn out when `CCC(=O)Nc1sc2c(c1C(=O)N(C)C)CCCCC2` was run?
A: The z-score was -0.0268.

Q: Which z-score does the source give for `N#Cc1c(C(F)(F)F)cc(-c2ccccc2)nc1SCC(=O)Nc1sc2c(c1C#N)CCC2` here?
A: Its z-score is -0.109.

Q: Which z-score does the source give for `O=C(CN1CCN(Cc2ccccc2)CC1)NC(=O)NCc1ccco1` here?
A: The z-score was -0.198.
